Data published in the supplement of paper PMC8728848.
Shown is part of a subset that was picked to be rich in the strongest signals.

system: GlcNAc(a1-4)Gal(b1-4)GlcNAc(b1-3)Gal(b1-4)[Fuc(a1-3)]GlcNAc(b1-3)Gal(b1-4)[Fuc(a1-3)]GlcNAc; assay: glycan array binding signal (z-score within array); higher = stronger binding; conditions: glycan notation: IUPAC condensed, linker removed
Method in brief: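 The Consortium for Functional Glycomics database supplied 3228 glycan arrays, of which those lacking an available protein sequence were dropped. The binding signal, a within-array Z-score, was averaged across arrays of the same protein sequence and across linkers. Negative scores can be read as non-binding.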

Substance | glycan array binding signal (z-score)
CLEC-2 (Homo sapiens) (chain not printed) | 1.21
H-Ficolin (Homo sapiens) (chain not printed) | 9.73
M-Ficolin G221F A256V (Homo sapiens) (chain not printed) | -0.046
FGF2 (chain not printed) | 2
Meso764 (Homo sapiens) (chain not printed) | 3.71
